Assay results as given in PubChem BioAssay AID1454 (National Center for Advancing Translational Sciences (NCATS), 2008).
The campaign covered roughly 130,000 compounds. About 550 (0.42%) were called active. The inconclusive results got no clear call from the source; some entries with a clear call stand among them for comparison. The call rests on the fitted dose curve; in most records, active means well fitted inhibition curve with a large enough effect; inconclusive means small, poorly fitted or top-dose-only effect, or effect the other way; inactive means flat fitted curve, though single readings scatter. Potencies of inconclusive entries are left out as doubtful fits.

Assay: qHTS Assay for Inhibitors of the ERK Signaling Pathway using a Homogeneous Screening Assay; Stimulation with EGF; further: nearly all actives have a fitted effect of over 55% in size;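 on activity change, negative = inhibition: plate controls were stimulated vehicle wells for no effect and unstimulated vehicle basal for full effect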
Conditions: HEK293-V1b, EGF-stimulated phospho-ERK AlphaScreen; activity change, negative = inhibition: at the top concentration
In short: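 Homogeneous cell-based phospho-ERK assay: HEK293/V1b cells in 1% FBS, compound 30 min then EGF 5 min, AlphaScreen luminescence. Activity normalized between DMSO and 25 nM EGF controls; AC50 from Hill modelling.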
Potency means the concentration at half of the fitted maximal effect; tags describe the fitted curve by direction and shape.

SMILES | Potency | activity change, negative = inhibition
CC(C)c1ccc(Nc2nc(Cl)nc(NCc3ccco3)n2)cc1 | inconclusive [inhibitor, single point] | –
Oc1c(N=NC(=S)Nc2ccccc2F)c2ccccc2n1Cc1ccccc1Cl | active: 14.1 µM | –
N#Cc1cccc(NC(=O)N2CCC3(CC2)CCN(C(=O)c2cnccn2)CC3)c1 | – | inactive: -12%
COc1ccc(Nc2ncnc3ccc([N+](=O)[O-])cc23)c(OC)c1 | – | inactive: 0.887%
COc1cc(CNC(C)c2ccccc2)cc(Cl)c1OCC(=O)Nc1ccccc1 (stereo not drawn) | inconclusive [inhibitor, single point] | –
COc1ccc([C@@H]2CC(=O)c3c(O)cc(O[C@H]4O[C@@H](CO[C@H]5O[C@@H](C)[C@@H](O)[C@@H](O)[C@@H]5O)[C@@H](O)[C@@H](O)[C@@H]4O)cc3O2)cc1O | – | inactive: 4.11% [at 25.7 µM]
COc1ccc2oc(=O)c(-c3nc4ccccc4o3)cc2c1 | inconclusive [inhibitor, single point] | –
Cc1ccc(NC(=O)c2cc3cccc([N+](=O)[O-])c3[nH]2)cc1 | inconclusive [inhibitor, single point] | –
CC(=O)c1cccc(NC(=O)c2ccc(-c3ccccc3[N+](=O)[O-])o2)c1 | inconclusive [inhibitor, single point] | –
Cc1c(OCc2ccccc2)cccc1OCc1ccccc1 | inconclusive [activator, single point] | –
O=C(NC(=S)NC1CCSC1=O)c1cccs1 (stereo not drawn) | inconclusive [inhibitor, single point] | –
O=C(CS(=O)(=O)c1ccccc1)c1ccc2c(c1)OCCO2 | inconclusive [inhibitor, partial curve] | –
COc1ccc(Nc2nc(-c3c(C)nc4ncccn34)cs2)cc1 | inconclusive [inhibitor, single point] | –
O=c1c(-c2ccc(F)cc2)nc2cnc(N3CCOCC3)nc2n1-c1ccccc1 | inconclusive [activator, partial curve] | –
O=C(Oc1ccccc1)N1CCC2(CCCN(c3ncccn3)C2)CC1 | – | inactive: -3.46%
C=C(CO)C1Cc2c(ccc3c2OC2COc4cc(OC)c(OC)cc4C2C3=O)O1 (stereo not drawn) | – | inactive: -9.45%
COc1ccc(N(CC(=O)Nc2cccc(C)c2C)S(=O)(=O)c2c(C)[nH]c(=O)[nH]c2=O)cc1 | inconclusive [activator, partial curve, poor fit] | –
CN(C)CCN(Cc1ccc(Cl)cc1)c1ccccn1 | – | inactive: -1.86% [at 25.7 µM]
Cc1ccc(-c2cc(C(=O)N(C)Cc3cnn(C)c3C)c3cc(Br)ccc3n2)cc1 | inconclusive [inhibitor, partial curve] | –
CCOCCCn1c(=NC(C)=O)c(C#N)cc2c(=O)n3cccc(C)c3nc21 | inconclusive [inhibitor, partial curve] | –
COc1ccc(N2CCC(CNC(=O)Nc3ccc(Cl)cc3)C2)cc1 (stereo not drawn) | inconclusive [inhibitor, single point] | –
O=C(Nc1ccc(N2CCCCCC2)cc1)c1ccccc1Cl | inconclusive [inhibitor, partial curve, poor fit] | –
O=C(N=Nc1ccc(NOC(=O)c2ccccc2Br)cc1)c1ccccc1O | inconclusive [inhibitor, single point] | –

SMILES | Potency | activity change, negative = inhibition
CN1/C(=C\C=C2/SC(=S)N(CC(=O)O)C2=O)C(C)(C)c2ccccc21 | inconclusive [inhibitor, partial curve] | –
Cc1cc(C=O)c(C)n1-c1ccc(Oc2ccc([N+](=O)[O-])cn2)cc1 | inconclusive [inhibitor, single point] | –
O=C(COC(=O)c1ccc[nH]c1=O)Nc1cc(S(=O)(=O)N2CCCCC2)ccc1Cl | inconclusive [inhibitor, single point] | –
Cn1c(=O)c2[nH]c(COc3ccc(C(C)(C)C)cc3)nc2n(C)c1=O | inconclusive [inhibitor, single point] | –
COc1ccccc1C1=NOC(COc2ccc3c(C)cc(=O)oc3c2)C1 (stereo not drawn) | inconclusive [inhibitor, single point] | –
CC(=O)N(C1=C(Cl)C(=O)c2ccccc2C1=O)C1CCCCC1 | active: 25.1 µM | –
COCCn1cnc2c(c1=O)c1nc3ccccc3nc1n2/N=C/c1cccc(OC)c1 | inconclusive [activator, full curve, poor fit] | –
COc1ccc(NC2=C(c3ccc(OC)cc3)C(=O)c3ccccc32)cc1 | – | inactive: 3.4%
CCOc1cc(N2CCOCC2)c(OCC)cc1NC(=O)c1ccc2ccccc2n1 | inconclusive [inhibitor, single point] | –
Cc1cc(C)c(Nc2cc(S(=O)(=O)O)c(N)c3c2C(=O)c2ccccc2C3=O)c(C)c1 | active: 22.4 µM | –
CCN(CC)c1ccc(NC(=O)c2ccc3c(c2)c(C)c(C)n3C)cc1 | inconclusive [inhibitor, single point] | –
Cn1c(=O)c2ncn(CC(=O)Nc3nc(-c4ccc(Cl)cc4)cs3)c2n(C)c1=O | – | inactive: -5.13%
Oc1ccc(C2CNCc3sccc32)cc1O (stereo not drawn) | inconclusive [inhibitor, single point] | –
C=CCc1cccc(/C=N/NC(=O)CNc2ccccc2OC)c1O | inconclusive [inhibitor, single point] | –
CN(C)S(=O)(=O)N(CC(=O)Nc1ccc2ccccc2c1)c1ccccc1 | – | inactive: 15.6%
COc1cc(C(=O)O/N=C2/C=C(C)C(=O)C=C2C)cc(OC)c1OC | – | inactive: -4.65%
Cc1sc(NC(=O)c2cccs2)c(C(=O)OC(C)C)c1C | inconclusive [activator, partial curve] | –
Cc1ccc(NC(=O)CN(c2ccc(Cl)cc2)S(=O)(=O)c2cc([N+](=O)[O-])ccc2Cl)c(C)c1 | inconclusive [inhibitor, partial curve] | –
Cc1ccc(-n2c(=O)c3c4c(sc3n3c(=S)[nH]nc23)CCC4)cc1 | – | inactive: 2.55% [at 57.5 µM]
CCOC(=O)C(=Cc1ccc(Br)cc1)C(=O)OCC | inconclusive [inhibitor, single point] | –
Cc1c(Cc2ccccc2)c(=O)oc2c(O)c(O)ccc12 | inconclusive [inhibitor, single point] | –
O=C(Nc1ccc(Cl)cc1Cl)c1csc(-c2cccnc2)n1 | inconclusive [activator, partial curve] | –
O=C(c1ccc(N2CCCCC2)c([N+](=O)[O-])c1)N1CCN(c2ccccn2)CC1 | inconclusive [inhibitor, partial curve] | –

SMILES | Potency | activity change, negative = inhibition
CC(=O)n1nc(-c2ccccc2)nc1NCc1ccc(N(C)C)cc1 | inconclusive [inhibitor, partial curve] | –
CC1(C(=O)OCC(=O)Nc2ccc3ccccc3c2)CC1(Cl)Cl (stereo not drawn) | inconclusive [inhibitor, single point] | –
CN1CCN(/N=C/c2ccc(-c3ccccc3)cc2)CC1 | inconclusive [inhibitor, partial curve, poor fit] | –
O=C(NCCC1CC1(Cl)Cl)Nc1ccccc1 (stereo not drawn) | – | inactive: 2.12% [at 57.5 µM]
COc1ccc(-c2nnc(SCC(=O)N3CCN(c4ccccc4)CC3)o2)cc1OC | – | inactive: 1.49%
Cc1cccc(NCCC(=O)c2ccc([N+](=O)[O-])cc2)c1C | inconclusive [inhibitor, single point] | –
COc1ccc(CCC(=O)N/N=C\c2cccs2)cc1 | – | inactive: -1.82%
O=C(c1cccc(N2C(=O)C3CC=CCC3C2=O)c1)N1CCN(c2ccccc2)CC1 (stereo not drawn) | inconclusive [inhibitor, single point] | –
COCC(=O)N1CCC2(CC1)CN(C(=O)Nc1ccccc1)C2 | – | inactive: 3.09%
C/C(=N\Nc1cccc2cccnc12)c1ccc[nH]1 | inconclusive [inhibitor, partial curve] | –
Cc1csc(NC(=O)Nc2ccccc2[N+](=O)[O-])n1 | inconclusive [inhibitor, partial curve] | –
CCOC(=O)c1oc2cc(O)c(CC)cc2c(=O)c1-c1cscn1 | – | inactive: 8.43%
CCn1c2ccccc2c2cc(CNCc3ccc(OC)cc3OC)ccc21 | inconclusive [inhibitor, single point] | –
NNc1nc2ccc(F)cc2s1 | inconclusive [inhibitor, partial curve] | –
C=CCN1C(c2ccc(Br)cc2)=CS/C1=C(/C#N)c1nnc(N2CCOCC2)n1-c1ccccc1 | inconclusive [inhibitor, partial curve] | –
COc1cc2ncnc(NCc3cccc(Cl)c3)c2cc1OC | active: 0.447 µM | –
O=C(Cn1cc(/C=C\[N+](=O)[O-])c2ccccc21)Nc1ccccc1 | inconclusive [inhibitor, single point] | –
c1ccc2c(c1)OCC(CNc1ncnc3sccc13)O2 (stereo not drawn) | inconclusive [inhibitor, single point] | –
CC(=O)OCC(=O)[C@@]1(O)CCC2C3CC[C@H]4CC(O)CC[C@@]4(C)C3C(=O)C[C@]21C (stereo partly drawn) | – | inactive: 27%
CCOc1ccc2nc(NC(=O)c3cc([N+](=O)[O-])ccc3N3CCOCC3)sc2c1 | inconclusive [inhibitor, partial curve] | –
O=C(NC(=S)Nc1nc(-c2ccccc2)cs1)c1ccco1 | inconclusive [inhibitor, single point] | –
C/C(N)=C(/C#N)C(=O)COC(=O)c1cccc(O)c1 | active: 28.2 µM | –
